In PubChem BioAssay AID1347417 (National Center for Advancing Translational Sciences (NCATS), 2020):
Screen size: about 120,000 compounds; about 5,300 (4.4%) were called active. Inconclusive results, whose numbers are uncertain, are shown with a selection of clear calls. Calls come from the whole dose curve; as a rule, active = well fitted inhibition curve with a large enough effect; inconclusive = small, poorly fitted or top-dose-only effect; inactive = no such curve, though single readings can be large or run the other way. A potency beside an inconclusive call is a rough fit, not a confirmed value.

experiment: qHTS Primary assay for Inhibitors of Plasmodium falciparum Dd2 growth in vitro; note: nearly all actives have a fitted effect of over 65% in size;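 for activity, negative = inhibition: plate controls were DMSO vehicle for no effect and reference drug for full effect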; details: P. falciparum Dd2 growth, SYBR Green, 72 h; activity, negative = inhibition: at 28.9 µM (top of the series) unless noted; series mostly up to 28.9 µM
Summary of the method: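 Readout: SYBR Green fluorescence, 485 nm excitation, 535 nm emission, after ~16 h lysis at 37C. Before that, Dd2-infected red cells (2.5% hematocrit) grew 72 h with compound, 29 uM top final concentration.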
Potency is the fitted concentration of half-maximal effect; tags give direction and shape of the fitted curve.

Question: With `O=C(CCNc1cnc2cnccn12)NCc1ccc(F)c(Cl)c1` as the molecule, how does the Potency read?
Answer: Its Potency is inconclusive: 17.8 µM [inhibitor, single point].

Question: For `Cn1nc(C(=O)NC[C@@H]2C[C@H](F)CN2)cc1-c1cccs1`, which “activity, negative = inhibition” value is on record?
Answer: Its value is inactive: -8.97%.

Question: Which Potency does the source give for `COc1ccccc1NC(=O)c1ccc2[nH]c(C)cc(=O)c2c1` here?
Answer: The Potency was inconclusive: 15.8 µM [inhibitor, single point].

Question: Which Potency does the source give for `COc1cc(Cl)ccc1C(=O)N[C@@H]1CN(c2ncccn2)C[C@H]1CN(C)C` here?
Answer: The Potency was inconclusive: 8.91 µM [inhibitor, single point].

Question: For `Cc1ccc(C(=O)N(C)Cc2cccc(C(F)(F)F)c2)cc1`, which Potency is on record?
Answer: The Potency was inconclusive: 31.6 µM [inhibitor, single point].

Question: With `O=C(COc1ccc(Cl)cc1)Nc1ccc(O)c(-c2nc3ccccc3s2)c1` as the molecule, how does the Potency read?
Answer: Its Potency is inconclusive: 10 µM [inhibitor, single point].

Question: For `Cc1cccc(C(=O)N2[C@H]3CC[C@@H]2c2cnc(C)nc2C3)c1`, which “activity, negative = inhibition” value is on record?
Answer: The value was inactive: 26.1%.

Question: With `Cc1ccc(Cn2c(C(=O)O)c(CNCCc3cccs3)c3ccc(C)cc32)cc1` as the molecule, how does the Potency read?
Answer: The Potency was inconclusive: 11.2 µM [inhibitor, single point].

Question: For `CCN(C(=O)CSc1nc2ccccc2nc1Cc1cccc(OC)c1)c1cccc(C)c1`, which Potency is on record?
Answer: Its Potency is inconclusive: 15.8 µM [inhibitor, single point].

Question: Which Potency does the source give for `COc1cc(NC(=O)OC[C@H]2C[C@@H]3CCN2C[C@@H]3c2cc(-c3ccc(N(C)C)cc3)nc(C)n2)cc(OC)c1` here?
Answer: The Potency was inconclusive: 1.12 µM [inhibitor, partial curve, poor fit].

Question: Which “activity, negative = inhibition” value does the source give for `N#Cc1ccc(O[C@@H]2CCOC[C@H]2NC(=O)NCc2ccco2)cc1` here?
Answer: The value was inactive: -11%.

Question: For `CCCNC(=O)N1CC(Oc2cccc(-c3nc(-c4ccccc4)no3)c2)C1`, which Potency is on record?
Answer: The Potency was active: 2 µM.

Question: For `Cn1cnc2cc(-c3ccccc3)cc(C(=O)NCc3cccnc3)c21`, which Potency is on record?
Answer: The Potency was inconclusive: 12.6 µM [inhibitor, partial curve, poor fit].

Question: For `O=C1CCCCCN1C1CCN(Cc2ccccc2)CC1`, which “activity, negative = inhibition” value is on record?
Answer: Its value is inactive: -21.5% [at 44.1 µM].

Question: For `CCN(CC)S(=O)(=O)c1ccc2nc(NC(=O)c3ccccc3OC)sc2c1`, which Potency is on record?
Answer: Its Potency is inconclusive: 3.98 µM [inhibitor, single point].

Question: With `Cc1nnc(N2CCC(C(=O)NCc3ccc(F)cc3)CC2)c2nn(-c3ccc(Cl)cc3)c(C)c12` as the molecule, how does the Potency read?
Answer: The Potency was inconclusive: 1.78 µM [inhibitor, partial curve, poor fit].

Question: With `CC(C)(C)c1ccc(C(=O)Nc2nc3c(s2)C[C@@H]2[C@](C)(CO)[C@H](O)CC[C@@]2(C)[C@@H]3CC(=O)NCc2cccs2)cc1` as the molecule, how does the Potency read?
Answer: The Potency was inconclusive: 5.01 µM [inhibitor, partial curve, poor fit].

Question: Which Potency does the source give for `COc1ccc2[nH]c3c(c2c1)CCNC31CCN(C(=O)NC(C)(C)C)CC1` here?
Answer: The Potency was inconclusive: 11.2 µM [inhibitor, single point].

Question: For `Cc1ccc(-c2ccc3nnc(CNC(=O)c4ccc(F)c(F)c4)n3n2)cc1`, which “activity, negative = inhibition” value is on record?
Answer: The value was inactive: -15.6%.

Question: With `COc1ccc(CN2C(=O)[C@@H]3C[C@@H](O)CN3C3(CN(Cc4ccc(F)cc4)C3)C2=O)cc1` as the molecule, how does the Potency read?
Answer: The Potency was inconclusive: 17.8 µM [inhibitor, single point].

Question: With `c1ccc2c(c1)CC(N1CCC(CN(CCCn3cccn3)CC3CCCO3)CC1)C2` (stereo unspecified) as the molecule, how does the Potency read?
Answer: Its Potency is inconclusive: 6.31 µM [inhibitor, partial curve, poor fit].

Question: With `COCCNC(=O)C1(C)CN(Cc2ccccc2)Cc2ccc(Nc3ccccc3)nc21` (stereo unspecified) as the molecule, how does the “activity, negative = inhibition” value read?
Answer: Its value is inactive: -0.421% [at 44.1 µM].

Question: With `CCC(=O)N1c2ccccc2CC1C(=O)NCCc1ccccc1OC` (stereo unspecified) as the molecule, how does the Potency read?
Answer: The Potency was inconclusive: 0.891 µM [inhibitor, full curve, poor fit].

Question: For `O=C(CC1CCOCC1)N1CCN(Cc2ccc(F)cc2F)CC1`, which “activity, negative = inhibition” value is on record?
Answer: Its value is inactive: 84.9%.

Question: For `CCCCNC(=O)CSc1nc(-c2ccc(OC)cc2)cc(C(F)(F)F)n1`, which Potency is on record?
Answer: Its Potency is inconclusive: 17.8 µM [inhibitor, single point].

Question: Which Potency does the source give for `COc1ccc(CN2C=C(C(=O)OCc3noc(-c4cccc(F)c4)n3)C(C)=NS2(=O)=O)cc1` here?
Answer: The Potency was inconclusive: 20 µM [inhibitor, single point].

Question: For `CCCOc1ccccc1C(=O)N1CCCCC1CCN1CCCCC1` (stereo unspecified), which Potency is on record?
Answer: The Potency was inconclusive: 4.47 µM [inhibitor, partial curve, poor fit].

Question: For `CC(=O)Nc1c(C)nn(-c2ccccc2)c1N1CCC(C(=O)Nc2ccc(C)cc2Cl)CC1`, which “outcome” value is on record?
Answer: Its value is “inactive”.

Question: Which Potency does the source give for `CN(Cc1cccnc1)C1CCc2ccccc21` (stereo unspecified) here?
Answer: Its Potency is inconclusive: 10 µM [inhibitor, partial curve].

Question: Which Potency does the source give for `O=S(=O)(C1CC1)N1CCC(Cc2noc(-c3ccccc3)n2)C1` (stereo unspecified) here?
Answer: The Potency was inconclusive: 17.8 µM [inhibitor, single point].

Question: Which Potency does the source give for `Cc1cn2nc(C(=O)NCc3ccc(Cl)cc3)cc2c(N2CCCC2)n1` here?
Answer: Its Potency is inconclusive: 15.8 µM [inhibitor, partial curve, poor fit].

Question: For `CCC[C@H]1CN(CCCOc2ccc(C(N)=O)cc2)C[C@@H]1NC(C)=O`, which “activity, negative = inhibition” value is on record?
Answer: The value was inactive: 2.04%.

Question: Which Potency does the source give for `COc1cccc(CC(=O)N2CCCn3nc(C)c(-c4ccccc4-c4ccccc4)c32)c1` here?
Answer: Its Potency is active: 10 µM.

Question: Which “activity, negative = inhibition” value does the source give for `CCCS(=O)(=O)N1CCCC1C(=O)Nc1ccccc1-c1ccc(OC)cc1` (stereo unspecified) here?
Answer: The value was inactive: 4.72%.

Question: For `CN(C)C(=O)C1CN(C(=O)Nc2cccc(Cl)c2)CC12CCOCC2` (stereo unspecified), which “activity, negative = inhibition” value is on record?
Answer: The value was inactive: -8.4%.

Question: With `Cc1ccc(C(=O)N2CCN(C(=O)c3nnn4c3COC(c3ccccc3)C4)CC2)cc1` (stereo unspecified) as the molecule, how does the Potency read?
Answer: The Potency was inconclusive: 3.98 µM [inhibitor, single point].

Question: Which Potency does the source give for `Cc1ccn2c(Nc3ccc4c(c3)OCO4)c(-c3ccc(C)o3)nc2c1` here?
Answer: The Potency was inconclusive: 17.8 µM [inhibitor, single point].

Question: For `Cc1ccc(C(=O)NCCSc2c[nH]c3ccccc23)cc1C`, which “activity, negative = inhibition” value is on record?
Answer: Its value is inactive: 6.51%.

Question: Which “outcome” value does the source give for `COc1ccccc1C(=O)N1CCN(C(=O)c2nnn3c2COC(c2ccc(C)cc2)C3)CC1` (stereo unspecified) here?
Answer: The value was “inactive”.

Question: Which Potency does the source give for `CCOc1ccc(N(CC)C(=O)c2cc3c(s2)-c2ccc(Cl)cc2SC3)cc1` here?
Answer: The Potency was inconclusive: 11.2 µM [inhibitor, single point].

Question: Which “activity, negative = inhibition” value does the source give for `Cc1noc([C@@H]2CN(C(=O)CC(C)(C)C)C[C@H]2CO)n1` here?
Answer: Its value is inactive: 1.32%.

Question: For `O=C(Cc1ccccc1)N1CCC(Cc2nc(-c3ccccc3)n[nH]2)CC1`, which Potency is on record?
Answer: Its Potency is inconclusive: 12.6 µM [inhibitor, partial curve].

Question: For `CCOC(=O)C1CCN(c2nc3c(S(=O)(=O)c4ccc(CC)cc4)nnn3c3ccc(Cl)cc23)CC1`, which “outcome” value is on record?
Answer: Its value is “inactive”.

Question: With `CC(=O)c1ccc(NC(=O)C2CCCN(S(=O)(=O)c3ccc(Br)s3)C2)cc1` (stereo unspecified) as the molecule, how does the “activity, negative = inhibition” value read?
Answer: Its value is inactive: 11%.

Question: With `Cn1ncc(N2CCC(CNC(=O)c3ccc(F)cc3Cl)C2)cc1=O` (stereo unspecified) as the molecule, how does the “activity, negative = inhibition” value read?
Answer: Its value is inactive: 18.8%.

Question: For `CCN1c2cc(C(=O)NCc3cc(F)ccc3F)ccc2C(=O)N2CCCCCC21` (stereo unspecified), which Potency is on record?
Answer: The Potency was inconclusive: 6.31 µM [inhibitor, partial curve, poor fit].

Question: With `COc1cc2c(cc1OCc1ccccc1)N(C(=O)c1cccc(N(C)C)c1)CC21CCN(C)CC1` as the molecule, how does the Potency read?
Answer: The Potency was inconclusive: 1.41 µM [inhibitor, partial curve, poor fit].

Question: With `O=C(Cc1ccccc1)NCC1CN(Cc2ccncc2Cl)CC12CN(c1ccccc1)C2` (stereo unspecified) as the molecule, how does the Potency read?
Answer: The Potency was active: 11.2 µM.

Question: For `CCSc1ncc(Cl)c(C(=O)Nc2ccc(S(=O)(=O)N3CCCCC3CC)cc2)n1` (stereo unspecified), which Potency is on record?
Answer: Its Potency is inconclusive: 17.8 µM [inhibitor, partial curve, poor fit].

Question: With `CCOc1ccc(NC(c2ccc(Cl)cc2)c2nnc(-c3cccc(F)c3)o2)cc1` (stereo unspecified) as the molecule, how does the Potency read?
Answer: Its Potency is inconclusive: 10 µM [inhibitor, single point].

Question: For `COc1ccc2cc(C3CN(C(=O)CCc4n[nH]c(C)n4)CCO3)ccc2c1` (stereo unspecified), which “activity, negative = inhibition” value is on record?
Answer: The value was inactive: -5.61%.

Question: For `COc1cc(O)ccc1-c1nc2ccc(Br)cn2c1Nc1ccccc1C`, which Potency is on record?
Answer: The Potency was active: 6.31 µM.

Question: Which Potency does the source give for `CC[C@H]1CN2CC[C@H]1C[C@@H]2CNC(=O)Nc1cccc(SC)c1` here?
Answer: Its Potency is inconclusive: 11.2 µM [inhibitor, single point].

Question: Which Potency does the source give for `COc1ccc(-c2c(C)c3ccc(O)c(CN4CCCCC4C)c3oc2=O)cc1OC` (stereo unspecified) here?
Answer: The Potency was active: 11.2 µM.

Question: For `CN1C[C@@H]2CCCN3CCC[C@@H]([C@H]23)[C@H]1CCCC(=O)N1CCCCC1`, which Potency is on record?
Answer: Its Potency is inconclusive: 7.08 µM [inhibitor, partial curve, poor fit].

Question: For `Cc1cnc(CCNC(=O)NC(C)(C)C)n1Cc1ccccc1`, which Potency is on record?
Answer: Its Potency is active: 3.98 µM.

Question: Which Potency does the source give for `Cn1cc(CN2C[C@@H](F)[C@@H](OCc3nc4ccccc4[nH]3)C2)c2ccccc21` here?
Answer: Its Potency is inconclusive: 10 µM [inhibitor, partial curve, poor fit].

Question: With `CC1(C)[C@H](Cc2cc(CCO)on2)C[C@@H]1NCc1ccco1` as the molecule, how does the “activity, negative = inhibition” value read?
Answer: Its value is inactive: -26.7% [at 44.1 µM].

Question: With `O=C(c1nnc(CN2CCC(F)(F)CC2)n1-c1cccnc1)N1CCC[C@@H]1C(c1ccccc1)c1ccccc1` as the molecule, how does the Potency read?
Answer: Its Potency is inconclusive: 0.398 µM [inhibitor, full curve].

Question: Which Potency does the source give for `COc1ccc(CC(=O)N2CCC3(CC2)CN([S+](=O)([O-])c2ccccc2)CCO3)cc1` here?
Answer: The Potency was inconclusive: 10 µM [inhibitor, single point].

Question: With `Cc1cccc(-n2ncc3c(Nc4c(C)cc(C)cc4C)ncnc32)c1` as the molecule, how does the Potency read?
Answer: The Potency was inconclusive: 10 µM [inhibitor, single point].

Question: For `Oc1ccc(Nc2nc(-c3ccc(Cl)cc3)nc3ccccc23)cc1`, which Potency is on record?
Answer: Its Potency is inconclusive: 17.8 µM [inhibitor, single point].

Question: With `COc1ccc(NC(=O)N2[C@H]3CC[C@@H]2c2cnc(-c4ccccc4)nc2C3)cc1OC` as the molecule, how does the Potency read?
Answer: The Potency was inconclusive: 4.47 µM [inhibitor, partial curve, poor fit].

Question: With `O=S(=O)(c1cccc(F)c1)N1CCC2(CC1)CC(Cc1nc(C3CC3)no1)CCO2` (stereo unspecified) as the molecule, how does the Potency read?
Answer: The Potency was inconclusive: 0.631 µM [inhibitor, full curve, poor fit].

Question: With `CCN(CC)CCNC(=O)Cn1ncc2c3ccccc3n(Cc3ccccc3C)c2c1=O` as the molecule, how does the Potency read?
Answer: The Potency was active: 10 µM.

Question: With `Cn1nnnc1SCCCNCc1ccccc1OCc1ccccc1F` as the molecule, how does the activity, negative = inhibition read?
Answer: The activity, negative = inhibition was inconclusive: -68% [inhibitor] [at 0.594 µM].
